Source: US20080311122A1, “Antagonists of Hmgb1 and/or Rage and Methods of Use Thereof” (Medimmune, LLC, priority 2005, published 2008)
“Also recorded” adds a separate entry of the source.

Key:
[1] = target: T1, HMGB-1 (Homo sapiens, UniProt P09429); test: Antibody HMG1 binding competition via BIAcore analysis
T1 sequence (P09429 1-215): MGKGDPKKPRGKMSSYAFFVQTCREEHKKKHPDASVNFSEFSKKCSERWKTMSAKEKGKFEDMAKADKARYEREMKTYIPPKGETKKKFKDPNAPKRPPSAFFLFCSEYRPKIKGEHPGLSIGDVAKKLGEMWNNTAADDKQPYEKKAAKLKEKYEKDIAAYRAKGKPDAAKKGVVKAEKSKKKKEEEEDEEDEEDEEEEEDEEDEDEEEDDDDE
Experimental: Antibody HMG1 Binding Competition via BIAcore Analysis: All experiments were performed on a BIAcore 3000 instrument (BIAcore, Inc., Piscataway, N.J.). The HMGB-1 protein was immobilized onto a CM5 sensor using a standard amine coupling chemistry protocol, as described in the BIAcore Handbook (BIAcore, Inc., Piscataway, N.J.). Briefly, the CM5 surface subject to the NHS/EDC activation. After activation a HMGB-1 was injected over the surface at a concentration of 100 nM or 200 nM (in 10 mM NaOAc, pH4) to a surface density of between 1100 and 1200 RU's. Following this, unreacted sites on the sensor chip surface were “capped” with an injection of 1M ethanolamine. For reference purposes, a blank flow cell was also prepared, utilizing this same procedure that was used to immobilize HMGB-1, but without any ligand.
MAbs G2, G4, G9, S6 and Synagis were prepared at 1 uM and 2 uM. All mAb solutions were prepared in HBS-EP buffer (BIAcore, Inc., Piscataway, N.J.). Each cycle started with a 100 μL injection of the first mAb, injected at 1 μM, followed by a second 100 μL injection of a 1:1 mixture of two, 2× concentration mAbs, such that the final concentration of each component mAb in the mixture is equivalent to the first injection. […]
Once the entire set had been collected, the maximum RU responses for each mAb after each injection cycle was recorded. […]

[2] = tested on: HMG1 (recombinant, native; immobilized, soluble); test: Direct and sandwich (capture) ELISA comparing forms of HMG1; assay type: binding
Experimental: Direct ELISA (immobilized HMG1): Individual wells of a 96-well immunoplate (EIA/RIA plate, High binding, Costar) were coated with HMGB-1 at 5 μg/ml in PBS at 4° C. overnight. The plate was then blocked with 4% milk powder dissolved in PBS at 37° C. for 1 hour. The blocking solution was removed and replaced with human anti-HMG1 antibodies at various concentrations (see FIG. 4A). The plate was then washed (ELX-405 Plate washer, BIO-TEK) and secondary antibody (anti-human IgG-HRP, PIERCE) was added at a final concentration of 1:125,000 at 37° C. for 1 hour. HRP activity was detected with Sureblue HRP substrate (KPL). Plates were read at 450 nm using a Kinetic Microplate Reader (Molecular Devices).
Sandwich ELISA (soluble HMG1): Immunoplates (EIA/RIA plate, High binding, Costar) were coated with anti human IgG Fc at 10 μg/ml in PBS (pH 7.2) and incubated at 4° C. overnight. The coating reagent was removed and the plates were rinsed briefly with PBS. The plates were then blocked with 4% milk for 1 hour at 37° C. and rinsed with PBS. The anti-HMG1 antibodies were diluted in 4% milk. For serial dilutions, the antibodies were used at a starting concentration of 20 μg/ml. […] HRP activity was detected with Sureblue HRP substrate (KPL). Plates were read at 450 nm using a Kinetic Microplate Reader (Molecular Devices).

[3] = target: T2, HMG2 (Bos taurus, UniProt P40673); test: Binding to HMG1 vs. HMG2 ELISA; set-up: species or system calf; settings: immobilized antigen
T2 construct: from tissue; host or cells: calf thymus (as read from the sentence)
T2 sequence (P40673 1-209): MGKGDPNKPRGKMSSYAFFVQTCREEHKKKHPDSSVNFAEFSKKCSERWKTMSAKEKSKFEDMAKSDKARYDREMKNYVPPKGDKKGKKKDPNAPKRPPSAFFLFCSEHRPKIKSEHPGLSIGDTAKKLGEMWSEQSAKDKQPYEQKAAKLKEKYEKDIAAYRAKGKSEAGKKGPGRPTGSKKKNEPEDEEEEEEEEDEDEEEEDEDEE
Experimental: Binding to HMG1 vs. HMG2: Ultra high-binding ELISA plates (ThermoLab systems, #3855) were coated with either 5 ug/mL of Calf thymus HMGB1 or HMBG2 diluted in 10 mM Phosphate buffered saline (PBS), pH 7.2 and incubate overnight at 4 degrees. The plates were washed twice with Ca and Mg free PBS and 100 microliters of anti-HMGB1 antibody diluted in 10 mM PBS, pH 7.2+1% bovine serum albumin (BSA) to a final concentration of 10 ug/mL was added to each well and the plates were incubated 1 hour at room temperature. The wells were washed three times with 100 μl of PBS, pH 7.2. HRP labeled goat-anti-human IgG Kappa-chain (KPL, #14-10-10) and goat-anti-human IgG Lambda-chain (KPL, #14-10-11) were diluted in 10 mM PBS+1% BSA 1:1000 and 100 μl were added to each well and incubated for 1 hour at room temperature. The wells were then washed three times with 100 μl of PBS, pH 7.2. OPD substrate (Pierce chemical company, #34006) was prepared following the manufacturers instructions and 100 μl of prepared substrate was added to each well and the plates incubated at room temperature in the dark for 20-30 minutes. The reaction was stopped with the addition of 100 μl of 2M H2SO4, and the plates read on a plate reader at a wavelength of 490 nm.

B1: S2: human anti-HMG1 antibody, ATCC PTA-6142; VL/VH aa SEQ ID NO: 5/7 (antibody, listed as Homo sapiens, V domains shown)
VH: EVQLLESGGGLVQPGGSLRLSCAASGFTFSGYMMVWVRQAPGKGLEWVSRISPSGGQTGYADSVKGRFTISRDNSKNTLYLQMNSLRAEDTAVYYCAREEGGSYGAFDIWGQGTMVTVSS
VL: [gap - about 100 residues]FGQGTKVEIK
binding sites on HMGB1 by BIAcore competition [1]: bind to either the same site or sites that are highly related perhaps overlapping | binding to recombinant HMG1 versus native HMG1 [2]: better binding to rHMG1; also recorded: discriminating between recombinant and the various native forms; also recorded: bind better to recombinant HMG1 than to native nuclear HMG1 | relative binding to HMG1 and HMG2 [3]: specific for HMG1
